# PMC6919601, “Identification of Plasmodium dipeptidyl aminopeptidase allosteric inhibitors by high throughput screening” (PLoS ONE, 2019)
# Screen size: about 110,000 compounds; about 230 (0.21%) showed an effect of 50% or more. The list shows a part of the results.
# Target: DPAP1 (Plasmodium falciparum, UniProt Q8IIJ9)
# Assay: primary screen, percent inhibition; read by cleavage of a fluorogenic dipeptide substrate; higher = more effect of the substance
# Set-up: species or system P. falciparum D10 trophozoite lysates; single well
# 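Also: 30 min substrate incubation versus DMSO and 10 µM JCP410 controls.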
# Sequence of DPAP1 (Q8IIJ9 whole entry, looked up): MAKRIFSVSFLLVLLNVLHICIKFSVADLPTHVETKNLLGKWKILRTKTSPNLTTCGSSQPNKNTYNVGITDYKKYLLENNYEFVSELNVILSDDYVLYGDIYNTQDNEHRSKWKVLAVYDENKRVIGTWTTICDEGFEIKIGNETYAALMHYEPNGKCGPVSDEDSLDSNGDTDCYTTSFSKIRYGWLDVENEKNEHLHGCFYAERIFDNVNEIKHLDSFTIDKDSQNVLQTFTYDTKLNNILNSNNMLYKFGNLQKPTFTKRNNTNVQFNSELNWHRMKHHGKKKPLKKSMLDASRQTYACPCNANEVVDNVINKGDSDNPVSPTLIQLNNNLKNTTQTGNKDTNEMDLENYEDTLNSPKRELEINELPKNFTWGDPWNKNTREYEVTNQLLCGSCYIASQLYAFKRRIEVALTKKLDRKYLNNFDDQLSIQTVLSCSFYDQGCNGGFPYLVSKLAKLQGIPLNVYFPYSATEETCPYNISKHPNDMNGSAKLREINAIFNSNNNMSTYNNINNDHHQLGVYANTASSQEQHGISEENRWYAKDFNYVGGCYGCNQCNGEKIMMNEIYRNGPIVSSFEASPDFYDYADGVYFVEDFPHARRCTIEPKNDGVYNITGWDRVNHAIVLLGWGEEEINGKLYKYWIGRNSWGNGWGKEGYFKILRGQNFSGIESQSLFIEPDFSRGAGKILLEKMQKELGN
row,SMILES,% Inhibition @ 10 uM [%]
1,CC1CCCCC1NC(=O)CCCn1c(=O)[nH]c2ccsc2c1=O (centres unmarked),-0.972
2,CC(C)Cc1nnc2sc(NC(=O)c3ccco3)nn12,-3.51
3,Cc1noc(C)c1CCC(=O)N1CCC(c2c[nH]c3ccccc23)(c2c[nH]c3ccccc23)CC1,5.54
4,CN1CCN(CCCn2cnc3c4cc(Cl)ccc4nc-3c2O)CC1,-3.52
5,Cc1ccccc1C(=O)Nc1sc2c(c1C(=O)NC1CCS(=O)(=O)C1)CCCC2 (centres unmarked),-2.79
6,O=C(CN1C(=O)c2ccccc2S1(=O)=O)Nc1cccc2ccccc12,1.88
7,CCCCNS(=O)(=O)c1ccc2nc(-c3cccnc3)cc(C(=O)NCc3ccccc3)c2c1,3.47
8,O=C(COc1cccc2cccnc12)N1CCN(C(=O)COc2cccc3cccnc23)CC1,1.63
9,CC1(c2ccc(Cl)cc2)CC(=O)c2cc(O)ccc2O1 (centres unmarked),4.79
10,O=C(O)CCCc1nc2ccccc2[nH]1,-1.81
11,COc1cc2c(cc1OC)C(SC)=NC(C)(C)C2,-0.582
12,CC(Sc1nc2c(c(=O)n(C)c(=O)n2C)n1Cc1cccc(Cl)c1)C(=O)O (centres unmarked),-7.18
13,C=CCN1C(=O)/C(=C\c2ccccc2O)S/C1=N/c1ccccc1,22.4
14,COc1ccc(CNC(=O)c2cccs2)cc1OC,-1.46
15,COc1cc(C)ccc1CO/N=C(\N)c1nonc1N,-4.91
16,Cc1cccc(C(=O)n2nc(-c3ccco3)nc2NCc2cccs2)c1,-3.24
17,C=CCSc1nc(-c2cccc(OC)c2)ccc1C#N,2.68
18,CCOC(=O)N1CC=C2C(C#N)=C(N)C(C#N)(C#N)C(c3ccc(-c4ccccc4)cc3)C2C1 (centres unmarked),6.42
19,NC(=O)/C=C/C(=O)Nc1ccccc1Cl,0.317
20,O=S1(=O)C(/C=N/CCc2ccccc2)=C(O)c2sccc2N1Cc1cccc(F)c1,-4.61
21,COc1ccccc1-c1cc(C(F)(F)F)nc(S(=O)(=O)CCCC(=O)NC(C)C)n1,12.3
22,COc1cc(/C=C2/NC(=O)NC2=O)ccc1OCc1cccc(C(=O)O)c1,4.74
23,O=C(NCc1ccncc1)c1nc(-c2ccc3c(c2)OCO3)no1,-6.25
24,Nc1nnc2nccnn12,-1.11
25,CC1=C(C)CC(C(=O)Nc2nc(-c3ccc(F)cc3)c(C)s2)C(C(=O)O)C1 (centres unmarked),1.71

row,SMILES,% Inhibition @ 10 uM [%]
1,COc1ccc(-n2nnc3c(=O)n(Cc4cc(C)ccc4C)cnc32)cc1,-3.94
2,COc1ccc(-n2c(C)nc(N)c2C(=O)c2ccccc2)cc1,2.7
3,Cn1c(=O)c(SC(C)(C)C)c(O)c2ccccc21,1.67
4,COc1ccc(F)c(C2C(C#N)=C(N)Oc3c2c(C)nn3-c2ccccc2)c1 (centres unmarked),-2.87
5,O=C(Nc1ccccc1[N+](=O)[O-])c1c(F)cccc1F,-4.31
6,COc1ccc(C(=O)N2CCc3cc(OC)c(OC)cc3C2Cc2ccc(OC)c(OC)c2)cc1 (centres unmarked),4.58
7,FC(F)(F)c1nc2c(ccc3nsnc32)[nH]1,-8.12
8,O=C1Nc2cc(Cl)cnc2N2CCCC12 (centres unmarked),13.2
9,COc1ccc(CNCC2CCC(C(=O)O)CC2)cc1 (centres unmarked),1.42
10,CCc1cc(S(=O)(=O)CC)c(S(=O)(=O)CC)s1,1.8
11,COc1ccc(/C=C/c2cc(C(=O)O)c3ccccc3n2)cc1,0.147
12,O=C(c1nc2ccccc2s1)c1conc1C(=O)c1cccs1,4.03
13,O=c1c2c3n(c4cc(N5CCCCC5)c([N+](=O)[O-])cc4c-2nn1-c1ccccc1)CCC3,0.815
14,CCN1CCCC1CNC(=O)CCNC(=O)c1cc(OC)c(OC)c(OC)c1 (centres unmarked),-0.519
15,Nc1c(-c2nc(-c3ccncc3)no2)nnn1-c1ccccc1,-4.46
16,COc1ccccc1N(CC(=O)N1CCC(C)CC1)S(C)(=O)=O,-2.8
17,CCc1ccc(C(C#N)NC(=O)[C@H](CC(C)C)NC(=O)OCc2ccccc2)s1 (some centres unmarked),-1.41
18,O=C(O)CCC(=O)Nc1ccc(S(=O)(=O)NC2CCCCC2)cc1,1.49
19,CCOc1ccc(CCNCc2c(C(=O)O)c(C)n(Cc3ccccc3F)c2C)cc1OCC,-5.49
20,O=C1c2ccccc2C(=O)N1c1cccc(-c2csc(Nc3ccc(Br)cc3)n2)c1,0.705
21,Cc1ccc(C(=O)c2cn(Cc3cccc(C(F)(F)F)c3)c3nc(C)ccc3c2=O)cc1,-1.71
22,O=C(CSc1nnc(COc2ccc(Cl)cc2)o1)N1CCOCC1,-4.66
23,CCOc1ccc(-c2cn3ncsc3n2)cc1,2.41
24,O=C(Nc1ccccc1)c1cc(SCCS(=O)(=O)c2ccc(Cl)cc2)ccc1Cl,-0.216
25,Cc1c(/C(Cc2ccccc2)=N/O)c2ccccc2n1C,-4.35
